Measurements as given in ChEMBL document CHEMBL4888484, “Replenishing the malaria drug discovery pipeline: Screening and hit evaluation of the MMV Hit Generation Library 1 (HGL1) against asexual blood stage Plasmodium falciparum ,using a nano luciferase reporter read-out” (2022).
Among all 150,000 compounds or so, about 540 (0.36%) showed an effect of 50% or more. The list shows a part of the results.

Each molecule was assayed on Plasmodium falciparum (assay: Primary screen in NF54 nanoGlo assay, in single point, at 2uM, 72h; a lower Z score goes with more inhibition). Conditions: timepoint 72 hour.
Format: functional, Erythrocyte

Row | Structure (SMILES) | % Inhibition [%] | Z score
1 | O=C(C[C@@H]1NC(=O)N(Cc2ccc3c(c2)OCO3)C1=O)Nc1cccc(O)c1 | -12 | 1.49
2 | CS(=O)(=O)C[C@H]1CCCN(Cc2nc(-c3ccccc3)cs2)C1 | -25 | 2.18
3 | Cc1nnc(NC(=O)c2cn3c4c(c(N5CCN(C)CC5)c(F)cc4c2=O)OC[C@@H]3C)s1 | -9 | 1.13
4 | Cn1c(C(=O)[C@H](C#N)C(=O)NC2CCCC2)cc2ccccc21 | -3 | 0.4
5 | CCN1CC[C@H](NCc2ccc(OCCN3CCOCC3)c(Cl)c2)C1=O | 33 | -0.63
6 | CCCc1oncc1C(=O)N1CCC[C@@]2(CNC(=O)O2)C1 | -5 | 0.65
7 | CNS(=O)(=O)CC(=O)N[C@H](c1ccc(F)cc1F)C(C)(C)C | -9 | 1.48
8 | Cc1cnn(-c2ccncc2NCc2ncc[nH]2)c1 | -9 | 0.98
9 | CCO[C@H]1CCN(C(=O)Cc2cc3ccccc3c(=O)[nH]2)C1 | 15 | -1.91
10 | CN1CCC(N(CCO)CCCc2c(F)cccc2Cl)CC1 | -5 | 0.86
11 | Cc1cc(C)n([C@H]2[C@@H]3OC[C@@H](O3)[C@@H](NCc3ccc4c(c3)OCO4)[C@@H]2O)n1 | -10 | 1.26
12 | CN1CCC[C@H]1c1nc(C2CN(C(=O)C3CCCC3)C2)no1 | 5 | -0.57
13 | CN(C(=O)c1cc2ccccc2c(=O)n1C)C1CCCC1 | -9 | 1.38
14 | Cc1cc(C)c2oc(N3CCC[C@H](n4cc(CN)nn4)C3)nc2c1 | -8 | 0.98
15 | C[C@H]1CN(C(=O)N2CCc3cnccc32)CCS1(=O)=O | -5 | 0.74
16 | Cc1cnc(NC(=O)C(=O)NCc2cc(C(C)C)no2)s1 | -9 | 1.33
17 | O=C(Cn1nc2ccc(-c3ccccc3)nn2c1=O)Nc1cccc(Cl)c1 | -3 | 0.55
18 | C[C@H](Oc1ccc(-c2ccccc2)c(F)c1)c1ccn(S(=O)(=O)c2ccc(F)cc2)n1 | -12 | 2.32
19 | O=C1CCCN1c1ccc(N2CCCC2=O)cc1 | -25 | 2.98
20 | CCc1nnc(CNC(=O)c2ccc(CN3CCC(C)CC3)o2)s1 | -13 | 1.49
21 | Cc1ccc(C(=O)N(C2CCCC2)C2CCCC2)cn1 | 22 | -2.53
22 | Cc1ccc(O)c(C(=O)N2CC[S+]([O-])CCC2C)c1 (stereo unspecified) | -4 | 0.57
23 | CC[C@@H]1C(=O)NCCCN1C(=O)COc1ccc(Cl)cc1C | -11 | 1.31
